Measured values taken from the RNAGym collection of RNA variant scans (doi:10.7554/elife.90254).
Read counts are not given, so values of variants with three or more changes are uncertain.

B1: LINE1-full (parent)
chain: UACGUAGGUGGUUUUCCCCUGAUAGUGCUAAGGGGGCCUGGAAGUUUGGACUGGGCAGAGCUCAACACAGCGUGGCAAAGUGGCUGUGGCUAGACUGCCUCUCUGGAUUCCUCGUCACUCAGCAGGGCAUCUCUGAGAGAAAUGCC

Variants of: B1
Experiment: self-cleavage, relative activity (ratio to wild type); higher = more cleavage; in vitro, sequencing; the parent is a self-cleaving ribozyme

| Variant | self-cleavage |
| --- | --- |
| U12C U23C U100C A142G | 1.58 |
| A42G U45A G48U U87C U134C A138G | 0.16 |
| A31G U46G U108A A117G U130C | 0 |
| U13C U52A G53A A78U U102C U143C | 1.76 |
| G54A U81C U108A U119C A124U | 0.32 |
| U91C A92U G97A C116A A140G | 0.02 |
| U26A A31U A42G A43G U102C | 0.84 |
| U14C U73G U134C A141G | 2.19 |
| C17U U26C C110A | 1.16 |
| A30G U39C U46C U87A U115A | 0.38 |
| U39C A94G A136G | 0.41 |
| A22G A78G A94G U132A | 0 |
| A43G U47C U81A U85C A136G | 0.41 |
| U13C C18A U108C A141G | 2.09 |
| U14A A64C G126U A129G | 0.4 |
| U47A U115C A121G | 0.85 |
| A31U A59G A117G | 0 |
| G25A A77U U87C U112C A117C | 0 |
| A6G A43U A78G | 0.9 |
| U23C U112A A121C A124U | 1.56 |
| U13C A59G U62C | 0.41 |
| U1C A64G A69G | 0.13 |
| A2G G7A U46C | 1.56 |
| U1A A77G U134C | 1.39 |

| Variant | self-cleavage |
| --- | --- |
| U20C U29A U119A | 0.46 |
| A43G U45C U130C | 1.2 |
| U14C A69G A121U U130C | 0.6 |
| U13C G21A G34C U47C A142G | 0.77 |
| C37U U102A A136G A140G | 1.14 |
| G55A G86A A129U A138G | 0.04 |
| U9C U39A A77G G125A U130A G137A | 1.8 |
| U12G U47A G89C | 0.12 |
| U73A A129G U134C | 1.23 |
| G4A A65G U112C | 0.08 |
| U12A U26A U115C G126A | 1.15 |
| U20C A59G U87A U132A | 0 |
| U26C A59G U91A A138U A142G | 0 |
| U13A G21A U47C U100C A124U | 1.02 |
| U29A A94U U115C A117U A124U | 0.48 |
| A59G A64C A77U G122A A140C | 0.04 |
| U12G U15C U26C G93A A129G | 0.11 |
| U13A U52A A78U A141G C146U | 1.7 |
| A31U G36C U73A A121U | 1.1 |
| A59U U112C A142U | 0.58 |
| A124U U130C U143A | 0.48 |
| G33A A78U U81C | 1.49 |
| U45C A57G C95U C128U | 0.11 |
| U45C A50C C113A A117G | 2.13 |

| Variant | self-cleavage |
| --- | --- |
| C16A U26A G70U | 0.14 |
| U39A G53U U102C A107G | 1.75 |
| U9G G53A A92G | 0.35 |
| G86U A94G U96C A140G | 0 |
| U20C U96C A117G A129G A141U | 0.54 |
| G60A G93A C98A A140G | 0 |
| U20C A59U U85C U109A | 0.18 |
| U29A U39C U102C | 1.05 |
| G4A U14C U96C | 0.26 |
| C95A U108C A140U | 0.06 |
| U20A U108A U119C U132C A140G | 0.46 |
| U47C U62C U112C | 0 |
| A43G A64U C118G U119G | 0.84 |
| G60A A78G A117G | 0.03 |
| G53A A59U A117G | 0.8 |
| A31G U47A C84U U87A | 0.06 |
| A30U U45G A64G U134G U143C | 0 |
| G33A A59U U73C | 1.04 |
| U20A A50G A124G | 0.92 |
| A78G U87A U112C | 0.17 |
| A65U A78G A79G A138C | 0.12 |
| A64U A77G A124U C146U | 0.64 |
| A24G G35C U119C | 1.66 |
| A24U U26C C37U A141G | 1 |

| Variant | self-cleavage |
| --- | --- |
| U26A G36A U47A U143G | 1.11 |
| A64G A77G A129G | 0 |
| A22G A78C U85C A124G | 0.54 |
| G7A U13C U15A U132C | 1.19 |
| A69G U109C A141C U143G | 0 |
| U81C U119A A124C | 2.3 |
| C16U U29C A43G U96C | 0 |
| U14C A50G U132C | 0.98 |
| A69G C113U A117U | 0.48 |
| U1A U115A U134C | 0.64 |
| A65G U109C U130C | 0 |
| U14G A94G U102C | 0.3 |
| U73A U104A U130A | 0.76 |
| A79G U91A C118A A141G | 0.42 |
| U13C A42G A65G U130C A136G U143C | 0 |
| A6G A42G A59G U62C A138G | 0 |
| A24G A65U U112C G127U | 0.28 |
| A24G U81C A142G | 0.81 |
| A92G U132A A140G | 0.14 |
| G72U G135A A142G | 0.99 |
| G33C U62C U132C A140G | 0.13 |
| U13A A79U U96G A140G | 0.05 |
| U47A U91C A94G C120A | 0.11 |
| U9G A43G U45G U46C C146U | 2.22 |

| Variant | self-cleavage |
| --- | --- |
| U45C G105A U109C | 1.49 |
| G40A U102C A124G | 1.49 |
| U20C U46C A79G G89A U102A | 0.06 |
| U14C A124G C133A G135A | 1.8 |
| U15C C90A U109A | 0.03 |
| A65G G86A U102A | 0.08 |
| U12A U13C U100C A117U A142G | 2.1 |
| U13C U20A U47C A129U A140G | 0.86 |
| A2G U26C A64U | 0.36 |
| C19U U115C A117C | 2.71 |
| U13C A77U A129G | 0.7 |
| U29A A31G A43G U47A A50U U96C C116U | 0.09 |
| G36A A94G U115A | 0.13 |
| A22U U47C A57U G105U | 0.18 |
| C16A U52A A140G U143A | 0.82 |
| A121G U132C A140G | 2.16 |
| G41A A42G A43G U104G C110U A140G | 0.8 |
| U9A U104A A138U | 0.63 |
| A50G A92G A138G | 0 |
| U15A A92U G144A | 0.71 |
| U12A U45A U73A U91C A141G A142G | 0 |
| A6G U9A U15C U73A U96C A107G A142G | 0 |
| U1A G10U A42G | 1.24 |
| U26C A57G U87G G89A | 0 |

| Variant | self-cleavage |
| --- | --- |
| U14C A141G U143A | 1.77 |
| A69U A92G A121U | 0.06 |
| A42G U62A U130C | 0 |
| U1C C71A C99A A117U C120U | 0.12 |
| G21A A78G U81C | 1.76 |
| G36A U62C U108C A136C | 0.03 |
| U73A A117G A138G | 1.45 |
| G11A A43G A78G | 0.73 |
| U23C U39C A59U U62C A121U | 0.09 |
| U12C A57U A77U U100C | 0.28 |
| G53A A79G C120A U132C | 1.34 |
| U47A A67G G127U | 0.52 |
| A24G U46C U62C A77G A107G | 0 |
| G4A U85C G89U | 0.09 |
| C37U U102C A142G | 0.61 |
| U9A A69U U96A | 0.03 |
| U39A U52A A117U | 1.5 |
| A79U A92G U104C A138G | 0.26 |
| A43G A50G A141G | 0.97 |
| G40A A77G C110U A140G | 1.84 |
| U9A C56U A140G | 0.14 |
| U13C G58A U108C | 0.11 |
| G32A U96C C131G | 0.04 |
| A24G G34A A43G A77G U100C U143C | 1.67 |

| Variant | self-cleavage |
| --- | --- |
| A22U A77U G125U A129U | 0.8 |
| A69U G114A U130C | 0.1 |
| G36C A107G C123G | 1.43 |
| A31U U130C A141G | 1.6 |
| A2G U85G C113U | 0.28 |
| U12C U20C U23C A43G A78G C120U | 2.3 |
| A6G G41A U102C | 0.83 |
| U46C U112A A124U A129G | 2.3 |
| U5A A78G G105A | 1.13 |
| U5A G33A U85C | 0 |
| U39C C71G A79U U112C | 0.16 |
| A77G A124G U134C | 0.44 |
| A43U A65G U132C | 0 |
| U26G A31C A57U U115C A140G | 0.61 |
| G44A U108C A138G | 2.24 |
| U52C U112C A129G | 2.3 |
| U15A G82A C99A A140G | 0.51 |
| U100C U134A A142G | 1.33 |
| G32A U52C A67U U134A | 0.07 |
| A2U U52A U134C A142G | 1.03 |
| A22G A121G A124C | 2.3 |
| U73A U91A U119C | 0.92 |
| A22G A78U A142G | 1.87 |
